Results reported in PMC4336329 (PLoS ONE, 2015).
About 2,200 (0.71%) of roughly 310,000 compounds showed an effect of 50% or more. The effect is printed as a negative number. This is one part of the list.

target: human ether-à-go-go-related gene (hERG) potassium channel (human, UniProt Q12809); test: primary screen, population patch clamp on CHO cells stably expressing hERG
Sequence (Q12809 whole entry, looked up): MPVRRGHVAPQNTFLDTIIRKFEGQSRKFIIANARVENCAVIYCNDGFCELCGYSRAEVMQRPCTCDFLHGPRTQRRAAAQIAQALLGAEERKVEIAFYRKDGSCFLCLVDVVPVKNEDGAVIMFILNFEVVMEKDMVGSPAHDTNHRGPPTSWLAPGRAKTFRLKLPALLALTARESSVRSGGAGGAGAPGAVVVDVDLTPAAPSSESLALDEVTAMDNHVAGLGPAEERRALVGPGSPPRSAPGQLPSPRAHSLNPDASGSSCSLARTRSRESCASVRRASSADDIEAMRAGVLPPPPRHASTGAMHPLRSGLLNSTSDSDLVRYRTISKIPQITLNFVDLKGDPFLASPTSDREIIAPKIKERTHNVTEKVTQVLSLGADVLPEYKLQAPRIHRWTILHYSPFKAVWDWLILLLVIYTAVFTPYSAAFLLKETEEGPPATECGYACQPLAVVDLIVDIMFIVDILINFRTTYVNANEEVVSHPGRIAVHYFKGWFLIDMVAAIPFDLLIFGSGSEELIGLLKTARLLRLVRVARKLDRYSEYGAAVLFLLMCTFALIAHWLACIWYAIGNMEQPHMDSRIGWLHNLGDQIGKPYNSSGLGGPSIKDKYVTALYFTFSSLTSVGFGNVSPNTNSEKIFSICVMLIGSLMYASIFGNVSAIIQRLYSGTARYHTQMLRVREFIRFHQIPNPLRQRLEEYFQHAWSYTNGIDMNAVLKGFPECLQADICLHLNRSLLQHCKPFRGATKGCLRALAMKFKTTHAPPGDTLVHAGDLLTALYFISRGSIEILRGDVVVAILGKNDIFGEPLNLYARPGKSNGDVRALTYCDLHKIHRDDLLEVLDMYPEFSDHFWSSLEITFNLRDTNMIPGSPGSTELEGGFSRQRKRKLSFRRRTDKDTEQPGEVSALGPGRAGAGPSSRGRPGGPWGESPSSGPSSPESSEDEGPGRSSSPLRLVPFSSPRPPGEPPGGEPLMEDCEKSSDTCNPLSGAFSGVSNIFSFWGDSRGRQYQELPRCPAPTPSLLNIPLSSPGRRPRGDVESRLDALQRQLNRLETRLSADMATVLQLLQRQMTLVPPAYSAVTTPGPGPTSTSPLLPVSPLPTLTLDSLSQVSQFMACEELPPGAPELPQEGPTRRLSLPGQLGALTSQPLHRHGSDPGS

SMILES	hERG current change (%, negative = inhibition) at 1uM
O=c1c2ccccc2nnn1CSc1nnc2sc3ccccc3n12	6.4%
CC(=O)N(Cc1nc2sc(C)c(C)c2c(=O)[nH]1)C1CCCC1	5.38%
Cc1ccccc1CN1CCCC(C(=O)N2CCCCC2)C1.O=C(O)C(=O)O (stereo not drawn)	14.7%
Cc1cc(C(=O)CSc2nn(-c3ccccc3)c(=S)s2)c(C)n1Cc1ccco1	10.2%
O=P(O)(c1ccc(Cl)cc1)c1ccc(Cl)cc1	5.87%
Cc1occc1C(=O)NC1CCCCCC1	14%
COc1ccccc1-n1ccnc1SCC(=O)NCc1ccco1	6.19%
COc1ccccc1N1CCN(/N=C/c2cccc(OC)c2OC)CC1	5.31%
CCn1c(SCC(=O)Nc2cc(C)on2)nnc1-c1c[nH]c2ccccc12	13.8%
Cc1ccc(C(=O)NC2CCCCC2)cc1S(=O)(=O)N1CCCC1	-5.72%
Clc1ccc2c(N3CCOCC3)ccnc2c1	0.204%
CCCCCCCN1C(Nc2ccccc2)=NC[C@@H]1CC(C)C	-44.6%
O=C(CN1CCN(CCC(=O)Nc2ccccc2F)CC1)Nc1ccc(F)cc1	-78.3%
COc1ccc(CCNC(=O)c2cccc(NC3=NC4CS(=O)(=O)CC4S3)c2)c(OC)c1 (stereo not drawn)	-0.0522%
CCOC(=O)CNC(=O)c1ccc(SCC)cc1	6.95%
O=C(NCCCN1CCOCC1)C1CCC(=O)N1C1CCCCC1 (stereo not drawn)	3.9%
Clc1ss/c(=N\c2ccccn2)c1Cl	10.4%
CC(=O)c1ccc(OCCCC(=O)NC2CCCCC2C)cc1 (stereo not drawn)	5.85%
CCN1C(=O)NC2C1N(S(C)(=O)=O)CCN2S(C)(=O)=O (stereo not drawn)	8.06%
COCCNC(=O)C(c1ccc(C)cc1)N(CCOC)C(=O)CCC(=O)Nc1ccccn1 (stereo not drawn)	14.5%
Cc1cc(NC(=O)CSc2nc(C(C)C)nc3ccccc23)no1	1.71%
CCCC(=O)Nc1c(O)c2ccccc2[nH]c1=O	10.6%
Cc1ccnc2nc(C(=O)OCC(=O)c3c[nH]c4ccccc34)nn12	24.2%

SMILES	hERG current change (%, negative = inhibition) at 1uM
CCC(CC)C(=O)Nc1ccc(C(=O)Nc2cc(C)on2)cc1	6.94%
NS(=O)(=O)c1ccc(NC(=S)NCC2CCCO2)cc1 (stereo not drawn)	6.88%
COc1ccc(OCC(=O)Nc2cccc(C(C)=O)c2)cc1	-6.73%
CCCc1nnc(SCC(=O)Nc2ccc3c(c2)OCCO3)n1CCOC	22.2%
CCOC(=O)C1CCN(S(=O)(=O)Cc2ccccc2)C1=O (stereo not drawn)	9.67%
Cc1cc(S(=O)(=O)NCC(c2ccc(F)cc2)N2CCN(C)CC2)ccc1F (stereo not drawn)	-39.3%
Cc1ccc(/C=C/C(=O)Nc2ccc([N+](=O)[O-])c(NC(=O)/C=C/c3ccc(C)o3)c2)o1	12.5%
O=C1C2C3c4ccccc4C(c4ccccc43)C2C(=O)N1CN1CCOCC1 (stereo not drawn)	13.5%
COC(=O)CCc1c(C)[nH]c(C(=O)OCc2ccccc2)c1C	11%
Cc1cccc(NCc2ccccc2)c1	7.24%
CCC(=O)O[C@]1(C(=O)CCl)[C@@H](C)C[C@H]2[C@@H]3CCC4=CC(=O)C=C[C@]4(C)[C@@]3(F)[C@@H](O)C[C@@]21C	18%
COc1ccccc1NC(=O)CCS(=O)(=O)c1ccccc1	11.5%
Cc1ccc(C(=O)NNc2ncnc3ccccc23)cc1	14.7%
Cc1[nH]c2ccccc2c1/C=N/NC(=S)NCc1ccccc1	8.46%
COc1ccc(CNC(=O)C(=O)c2cn(CC(=O)N3CCCC3)c3ccccc23)cc1	4.73%
O=C(c1sccc1-c1ccccc1)N1CCN(S(=O)(=O)c2ccccc2)CC1	14.1%
COc1ccccc1Nc1nnc(SCC(=O)NC2CCCC2)s1	10%
COc1ccc(N(C(=O)c2cnccn2)C(C(=O)NC2CCCCC2)c2ccc(O)cc2)cc1 (stereo not drawn)	7.73%
CCC(=O)Oc1ccc(C(=O)Nc2ccc([N+](=O)[O-])cc2)cc1	11.6%
CCn1cc(C(=O)NCc2ccco2)c(=O)c2cc(S(=O)(=O)N3CCCC3)ccc21	8.36%
COc1ccc(Cn2c(=O)sc3ccccc32)cc1OC	-10.6%
COc1ccc(N2CCN(C(=O)Cc3ccc(C)cc3)CC2)cc1	10.9%
